According to the BET-seq Pho4 binding data (Le et al. 2018):
The list shows a part of the results. These are noisy estimates, calculated here from bound and input reads.

Biological target: T1, Pho4 (S. cerevisiae) (UniProt P07270)
T1 sequence: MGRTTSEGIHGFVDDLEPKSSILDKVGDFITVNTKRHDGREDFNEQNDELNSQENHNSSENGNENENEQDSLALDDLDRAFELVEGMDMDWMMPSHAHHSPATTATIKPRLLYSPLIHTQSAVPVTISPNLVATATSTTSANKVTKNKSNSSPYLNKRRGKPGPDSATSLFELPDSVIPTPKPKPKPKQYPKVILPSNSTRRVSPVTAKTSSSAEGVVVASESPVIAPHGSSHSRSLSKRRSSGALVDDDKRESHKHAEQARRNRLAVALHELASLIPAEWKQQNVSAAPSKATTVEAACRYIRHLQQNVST
Assay: relative binding free energy (BET-seq); higher = weaker binding
Conditions: reference: library average

Row | Sequence | relative binding free energy [kJ/mol]
1 | CTTGGCACGTGCGGGA | -0.837
2 | AATATCACGTGCAGGG | 0.669
3 | TTGAGCACGTGTCCTG | -0.293
4 | AGTGTCACGTGGGTTC | 0.251
5 | TCGAACACGTGGGTAG | 0.126
6 | ATAATCACGTGGGAAT | 0.502
7 | GCTTTCACGTGCTGGT | 0.92
8 | TGGAACACGTGTGGGG | 0.92
9 | GTGGGCACGTGTGCGG | -0.46
10 | ATGGACACGTGTGTCG | 0.586
11 | ACTTACACGTGGGTAT | 0.251
12 | GGCGTCACGTGTTGCT | 0
13 | AAGATCACGTGGTGGT | 0.377
14 | GTCTTCACGTGTGTGA | 1.34
15 | TAATGCACGTGGTAGA | 0.0418
16 | GCTCACACGTGGTGGT | 0.46
17 | CGGTACACGTGAAGGG | 0.544
18 | GTGGACACGTGGCTGA | -0.418
19 | GTGTTCACGTGGTTGT | 1.09
20 | GAGTTCACGTGGCGTA | 1.17
21 | GGTGGCACGTGATTAG | 0.418
22 | TTGGACACGTGAAGTC | 1.26
23 | GTTAGCACGTGTCGTG | -0.209
24 | AAATGCACGTGTTCAT | 0.377
25 | GATGACACGTGGAAGG | 0.795

Row | Sequence | relative binding free energy [kJ/mol]
26 | GTTTTCACGTGGTGTG | 1.13
27 | TATATCACGTGAAGAA | 1.88
28 | GTCTTCACGTGTGAAG | 1.42
29 | AGAGTCACGTGGTTTT | 0.711
30 | TAGGTCACGTGGTGTT | 0.377
31 | CATTGCACGTGGAGGT | -0.167
32 | GGTTTCACGTGGCGTC | 1
33 | CAGGGCACGTGGCTTG | -0.544
34 | GCTGTCACGTGCGGTT | 0.126
35 | GTAGACACGTGGGGCA | -0.795
36 | CATAACACGTGGTTTG | -0.251
37 | AGTTGCACGTGTCGGT | 0.586
38 | TAGTGCACGTGTGAGG | -0.209
39 | GGGATCACGTGTCAGG | 1.17
40 | ATAGGCACGTGACTGG | -0.126
41 | GCCTGCACGTGGGGTT | -0.837
42 | GGGTGCACGTGCGCCG | -0.628
43 | TGGTTCACGTGCGATG | 1.17
44 | TTTTGCACGTGTGGCG | 0.251
45 | ACGGTCACGTGATGTA | 0.795
46 | GGTTACACGTGACGGT | 0.293
47 | TGATTCACGTGCAGTA | 0.962
48 | TAGTGCACGTGGTGCG | -0.293
49 | AGGCTCACGTGTGGGA | 1.13
50 | TGAGCCACGTGTTGGT | -0.502

Row | Sequence | relative binding free energy [kJ/mol]
51 | ATTAACACGTGATAGT | 0.418
52 | AGCTTCACGTGGGAAT | 0.837
53 | GAGCACACGTGGTAGG | 0.418
54 | GGTCACACGTGTTTTG | 0.837
55 | TTGATCACGTGCTGTA | 0.544
56 | AGTATCACGTGGTATG | 0.335
57 | ATGGACACGTGGTGTT | 0.293
58 | TGGTGCACGTGCAAGT | 0.502
59 | TAGGGCACGTGTAAGC | 0.0418
60 | TTTTACACGTGAAGGG | 1.46
61 | TGTAACACGTGATGGG | 0.669
62 | GTTTCCACGTGGTTAA | 0.46
63 | TGGGACACGTGGCTGT | 0.167
64 | AGTAGCACGTGCGGAG | -0.418
65 | TTTTCCACGTGTCATG | 0.628
66 | ATTAACACGTGTGGAG | -0.209
67 | AGGGACACGTGTGAAT | 0.837
68 | TGGTGCACGTGCGTAA | -0.628
69 | ATAGACACGTGTAGTG | 0.251
70 | CGGGGCACGTGGCTGC | -0.753
71 | CAAATCACGTGGTGGG | 0.837
72 | AGTTTCACGTGTTGGC | 1.63
73 | ACATTCACGTGGTTTT | 0.544
74 | ATGTCCACGTGTTTTT | 0.293
75 | ATCTTCACGTGTGTGA | 0.669

Row | Sequence | relative binding free energy [kJ/mol]
76 | AGGTACACGTGAATGA | 1
77 | GGTTACACGTGAAGGG | 1.34
78 | GTTGTCACGTGTAAAT | 0.418
79 | AGTGTCACGTGAATTT | 0.753
80 | TGGTACACGTGGTTAT | 0.293
81 | GTCTACACGTGTGTGA | 1
82 | ACGTTCACGTGAAGTT | 1.26
83 | TATTTCACGTGTTCAT | 0.879
84 | TGAGACACGTGTCTTT | 0.209
85 | CTGTGCACGTGTTGTT | -0.293
86 | GCAGGCACGTGTTGGG | -0.418
87 | TATATCACGTGACGGT | 1.17
88 | GATGTCACGTGAAGTG | 0.753
89 | TGACTCACGTGCGGGG | 0.0837
90 | GGCTGCACGTGAGTGG | 0.711
91 | ATGGGCACGTGTCATA | -0.502
92 | GTAGTCACGTGTGAGT | 0.46
93 | TCATTCACGTGGTTAG | 0.879
94 | TTAGTCACGTGGTCTT | -0.209
95 | GGAGGCACGTGTGTGT | 0.377
96 | GAGAGCACGTGGTGAT | -0.502
97 | ATAGGCACGTGACGTG | -0.711
98 | GGGTGCACGTGCGCGT | -0.711
99 | TGTGGCACGTGATGTC | 0.0837
100 | GATGCCACGTGGTAGG | 0.251

Row | Sequence | relative binding free energy [kJ/mol]
101 | CAAGTCACGTGGTAGG | 0.209
102 | ATTATCACGTGGAAGT | 1.21
103 | TAGCGCACGTGATAGT | -0.0837
104 | AGTGGCACGTGCTCAG | -0.335
105 | ATTGGCACGTGGAGTG | -0.251
106 | TGGTGCACGTGCGGTG | -0.126
107 | GGTAACACGTGTAAGA | 1.09
108 | GGCAGCACGTGGGTGA | -0.837
109 | AGTCTCACGTGTTGTC | 1.34
110 | ACTGACACGTGGCGGG | -0.0418
111 | TGTATCACGTGCAGAG | 0.628
112 | AATAACACGTGGGGGC | -0.0837
113 | GGATGCACGTGATATG | 0.586
114 | TGGTTCACGTGATCCG | 1.3
115 | GTGGGCACGTGGGTCC | -0.544
116 | AGTAACACGTGTAGAG | 0.251
117 | CTGGTCACGTGTGTCT | 1
118 | GGGCCCACGTGTGTGT | -0.251
119 | CGATACACGTGGGTGT | -0.669
120 | GGGGTCACGTGGTAAT | 0.795
121 | TCGTACACGTGTGTGT | 0.209
122 | CGTTGCACGTGCATGG | -0.544
123 | AGTGTCACGTGGTAGA | 0.418
124 | CTAGGCACGTGGCGTT | -0.251
125 | AGTGGCACGTGATTCT | -0.209

Row | Sequence | relative binding free energy [kJ/mol]
126 | GTGGTCACGTGGGCAG | 0.335
127 | TAGTTCACGTGGTATG | 0.92
128 | AGTAGCACGTGGAAGG | -0.586
129 | AATGCCACGTGATGTG | 0.126
130 | TATAGCACGTGTACTG | 0.46
131 | TGGGTCACGTGATATA | 0.795
132 | TTTGACACGTGCTCTG | 0.209
133 | TTTAACACGTGATGGT | 0.502
134 | TGAATCACGTGTAAGG | 0.669
135 | TTATTCACGTGAATAG | 0.837
136 | CAATGCACGTGGTCGG | -0.167
137 | GTAAGCACGTGGCGGG | -0.711
138 | GTTAACACGTGGGTTA | -0.669
139 | TGAGGCACGTGGGGGG | -0.92
140 | TGCTTCACGTGCGTGT | 0.209
141 | TGATTCACGTGCCGGG | 1.09
142 | CTACTCACGTGGGGGT | -0.167
143 | GATCTCACGTGGGCTT | 1.26
144 | TTCCGCACGTGCGGTT | 0.46
145 | GAGATCACGTGTTTGT | 0.377
146 | CTATACACGTGGGAGG | -0.335
